Assay results taken from PubChem BioAssay AID624417 (National Center for Advancing Translational Sciences (NCATS), 2012).
About 6,400 (1.6%) of roughly 410,000 compounds were called active. Inconclusive means that the source gave no clear call. Such entries were picked first, then a sample of the others. Calls follow the shape of the dose curve; as a rule, active = well fitted inhibition curve with a large enough effect; inconclusive = small, poorly fitted or top-dose-only effect; inactive = no such curve, though single readings can be large or run the other way. Potencies of inconclusive entries are left out as doubtful fits.

Each molecule was assayed against Glucagon-like peptide 1 receptor (Homo sapiens) (UniProt P43220) (assay: qHTS of GLP-1 Receptor Inverse Agonists (Inhibition Mode)). Settings: HEK293 GLP-1R CRE-luciferase, luminescence, 24 h, GLP-1R form is constitutively active; series mostly up to 38.3 µM.
Chain of UniProt P43220 (P43220 whole entry, looked up): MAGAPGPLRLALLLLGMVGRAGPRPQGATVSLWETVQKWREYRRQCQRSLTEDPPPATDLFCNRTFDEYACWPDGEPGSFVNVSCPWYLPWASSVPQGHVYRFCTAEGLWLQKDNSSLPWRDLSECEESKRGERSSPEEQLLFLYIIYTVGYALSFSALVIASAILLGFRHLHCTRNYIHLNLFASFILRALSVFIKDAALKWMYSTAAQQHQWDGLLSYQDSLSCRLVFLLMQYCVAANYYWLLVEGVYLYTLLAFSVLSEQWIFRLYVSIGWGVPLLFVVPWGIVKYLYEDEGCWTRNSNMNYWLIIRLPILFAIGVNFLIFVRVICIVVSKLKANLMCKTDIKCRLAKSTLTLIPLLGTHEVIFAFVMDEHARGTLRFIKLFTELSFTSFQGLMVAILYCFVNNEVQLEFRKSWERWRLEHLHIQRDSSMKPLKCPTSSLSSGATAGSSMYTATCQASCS
How it was run: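 Assay principle: reduced luminescence from a cAMP-responsive reporter in HEK293 cells co-expressing a constitutively active GLP-1R. Conditions: 24 hr compound incubation, 37 deg C, 5% CO2.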
Also: nearly all actives have a fitted effect of over 55% in size.
Potency is read from the fitted curve at half-maximal effect; tags tell the direction and shape of the fitted curve.

SMILES | Potency
COC(=O)c1ccc(NC(=S)N2CCN(Cc3ccccc3Cl)CC2)cc1 | inconclusive [inhibitor, single point]
CCN1CCN(C(=O)c2ccc3c(=O)n(CCC4=CCCCC4)c(=O)[nH]c3c2)CC1 | inconclusive [inhibitor, single point]
Cc1ccc(NC2(c3nnnn3-c3c(C)cccc3C)CCCCC2)cc1 | inconclusive [inhibitor, partial curve, poor fit]
S=C(NCCc1ccccc1)Nc1c(Cl)cccc1Cl | inconclusive [inhibitor, single point]
COc1cc(OC)c(N(C)S(=O)(=O)c2cccc(C(=O)NCc3cccs3)c2)cc1Cl | inconclusive [inhibitor, single point]
COc1c(Cl)cc(C(=O)Nc2cccc(-c3nc4ccccc4[nH]3)c2)cc1Cl | active: 7.94 µM
CCN(C(=O)COC(=O)c1ccccc1NCCO)c1cccc2ccccc12 | inconclusive [inhibitor, partial curve, poor fit]
Cc1ccc(C(=O)c2sc(Nc3ccccc3F)c(S(=O)(=O)c3ccccc3)c2N)c(C)c1 | inconclusive [inhibitor, partial curve, poor fit]
CCOc1ccc(NC(=O)Nc2cccs2)cc1 | inconclusive [inhibitor, single point]
COc1ccc(S(=O)(=O)N(C)C[C@H]2Oc3cc(Br)ccc3S(=O)(=O)N([C@H](C)CO)C[C@H]2C)cc1 | inconclusive [inhibitor, single point]
CCC(=O)Nc1c(C#N)c2nc3ccccc3nc2n1C1CCCCC1 | inconclusive [inhibitor, partial curve, poor fit]
CC(C)C1C(=O)N(Cc2cn(CC3CCCCC3)nn2)CCS(=O)(=O)N1Cc1ccc(-c2ccccc2)cc1 (stereo unspecified) | inconclusive [inhibitor, single point]
Cc1cc(C)c(S(=O)(=O)Nc2cc(-c3cn4ccccc4n3)ccc2C)cc1C | inconclusive [inhibitor, single point]
BrC(=C\c1ccccc1)/C=N/N1CCN(Cc2ccccc2)CC1 | inconclusive [inhibitor, partial curve, poor fit]
Cc1c(Cl)c(-c2n[nH]c(=S)n2-c2ccccc2)nn1C | inactive
CCCCN(CC)C(=O)c1cc2cc3ccc(Cl)cc3nc2o1 | inconclusive [inhibitor, single point]
